The full ranking holds about 110,000 compounds; the median of “z-score” is about -0.1, and the highest 2% start at about 2. This is one part of the list. The source made the active and inactive calls.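 Rule for the calls: active = z-score in the third read window above 3 or below -3; inactive = the rest.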

The target in this assay is Metabotropic glutamate receptor 8 (Rattus norvegicus) (UniProt P70579). The experiment in a line: rat mGluR8 modulators via GIRK flux, primary screen, cell-based, thallium flux, HTS (AID 488969). The settings on record: HEK293 rat mGluR8, GIRK (G protein-gated inwardly rectifying potassium channel) thallium flux, FluoZin2; at 10 µM; stronger effect = higher value; submaximal glutamate (EC20) added with thallium.
UniProt P70579, sequence (P70579 whole entry, looked up): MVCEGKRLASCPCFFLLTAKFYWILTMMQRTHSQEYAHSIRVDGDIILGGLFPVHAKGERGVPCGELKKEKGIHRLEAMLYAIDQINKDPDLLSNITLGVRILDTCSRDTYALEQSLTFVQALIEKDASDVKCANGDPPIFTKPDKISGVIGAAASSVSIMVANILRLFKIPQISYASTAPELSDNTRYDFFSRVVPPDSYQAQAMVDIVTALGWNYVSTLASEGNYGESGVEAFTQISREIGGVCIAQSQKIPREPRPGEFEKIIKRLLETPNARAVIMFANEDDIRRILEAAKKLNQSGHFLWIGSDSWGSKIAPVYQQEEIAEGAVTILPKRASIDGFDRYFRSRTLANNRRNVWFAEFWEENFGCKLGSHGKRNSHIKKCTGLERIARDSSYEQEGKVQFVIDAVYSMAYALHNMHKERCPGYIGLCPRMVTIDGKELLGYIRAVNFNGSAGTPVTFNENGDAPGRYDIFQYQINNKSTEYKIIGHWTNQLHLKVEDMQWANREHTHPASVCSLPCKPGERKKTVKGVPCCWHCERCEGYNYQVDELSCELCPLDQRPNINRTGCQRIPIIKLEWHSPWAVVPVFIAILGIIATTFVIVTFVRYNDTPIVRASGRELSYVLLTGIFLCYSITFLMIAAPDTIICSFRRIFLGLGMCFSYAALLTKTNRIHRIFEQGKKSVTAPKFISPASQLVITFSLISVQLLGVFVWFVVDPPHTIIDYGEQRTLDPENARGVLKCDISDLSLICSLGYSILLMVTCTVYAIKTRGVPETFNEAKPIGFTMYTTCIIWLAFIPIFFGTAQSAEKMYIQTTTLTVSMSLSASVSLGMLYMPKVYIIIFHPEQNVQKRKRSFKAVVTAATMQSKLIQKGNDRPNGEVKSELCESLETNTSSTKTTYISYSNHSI
Regarding `O=C(CSc1ncnc2c1oc1ccccc12)NCc1ccco1`, the z-score was -0.357. For the molecule `Cc1c(Cl)cccc1NC(=S)N1CCN(C(=O)C2CCCO2)CC1` (centres undefined), the z-score was -0.062. Consider `CCCN(Cc1ccccc1)C(=O)Nc1ccc2c(c1)nnn2C`, for which the z-score was -0.00232. Turning to `COC(=O)c1sccc1NC(=O)c1csc2c1CCCC2`, the z-score is -0.243.

For the molecule `CCOc1ccc2c(=O)c(Oc3ccccc3OCC)coc2c1`, the z-score is 0.145. The value for `COc1cc(OC)cc(C(=O)NC2CCSC2=O)c1` (centres undefined) was 0.0354. As to `O=C(NC(=O)c1ccc(Cl)cc1)Nc1cc(N2CCCCC2)ncn1`, the z-score was -0.336.

`COc1ccc(CCNC(=O)CN(c2ccc(OC)c(OC)c2)S(C)(=O)=O)cc1` had a z-score of 0.279. Molecule `COc1ccc(C2SCCN2C(=S)Nc2ccc(F)cc2)cc1` (centres undefined) returned a z-score of 0.313. The value for `CC(C)c1ccc(NC(=S)NN(c2ccccc2)c2ccccc2)cc1` was -0.422; that for `COc1c(Cl)cnn(-c2ccc(C)cc2)c1=O` was 0.0158. The value for `Cc1cc(C)c(S(=O)(=O)c2ccccc2)c(OC(=O)c2c(F)cccc2Cl)n1` was -1.45; that for `CCCN1CCC(NC(=O)Nc2ccc(F)cc2F)CC1` was 2.81; that for `Cc1nc2ccccc2nc1OCc1cccc(Cl)c1` was -0.33.

With `CC1CCN(CC(C)OC(=O)c2ccc3c(c2)OCCO3)CC1` (centres undefined), the z-score is 0.278.

Turning to `CCC(CC)C(=O)NCCc1cc2ccc(C)cc2[nH]c1=O`, the z-score is -0.142. With `N/C(=N\OC(=O)Cc1ccc(Cl)cc1)c1ccccn1`, the z-score was -0.151. Under `O=S(=O)(c1cccc(-c2nnco2)c1)N1CCCC1` stands -0.192. For `CCN(CC(=O)NCc1ccc(F)cc1)C(=O)COc1ccc2ccccc2c1`, the z-score is -0.144.

For `C=C(C)c1cccc(C(C)(C)NC(=O)NCC2CCCO2)c1` (centres undefined), the z-score is -0.323. For the molecule `C/C(CC(=O)NC(C)C)=N\NC(=O)COc1cc(C)c(Br)cc1Br`, the z-score was active: 6.24. On to `FC(F)(F)c1cc(Cl)c2nc(-c3ccccc3)cn2c1`, for which the z-score was -0.159. As for `O=C(Nc1ccccc1-c1ccccc1)C12CC3CC(CC(C3)C1)C2`, the z-score is -0.47. The molecule `CCOC(=O)c1sc(NC(=O)c2cccc(S(=O)(=O)N3CCN(C)CC3)c2)cc1C` displayed a z-score of 0.236. Molecule `COc1ccc(-n2c(SC)nc(O)cc2=O)cc1` showed a z-score of 0.379. `CCOC(=O)C(C)Oc1ccccc1C1NC(=O)NC(C)=C1C(=O)Nc1ccc(C)c(C)c1` (centres undefined) returned a z-score of 0.0731. The value for `CCC(=O)Nc1ccccc1C(=O)OCC(=O)Nc1ccc(S(N)(=O)=O)cc1` was -2.45; that for `O=C(CSc1nc2ccccc2n1-c1ccccc1)Nc1ncc(Cl)cc1Cl` was 0.463; that for `CC(C)CNc1oc(-c2ccco2)nc1C#N` was -0.118. `Cc1c(C(=O)N2CCN(c3ccccn3)CC2)oc2ccccc12`: the z-score was -0.408. Regarding `O=C(CN1CCCC1)NC1C2CC3CC(C2)CC1C3` (centres undefined), the z-score was -0.0836. `CCOC(=O)C1=C(C)N(C)C(=O)NC1c1ccc(C)s1` (centres undefined): the z-score was -0.0391. Take `Cc1ccc(-n2c(Cl)c(Cl)nc(Cl)c2=O)cc1`: the z-score was determined as 0.316. As for `CN1C(=O)CS(=O)c2ccc(C(=O)NC3CC3)cc21` (centres undefined), the z-score is -0.059. Take `O=C(N/N=C/C1CC=CCC1)c1ccccc1O` (centres undefined): the z-score was -0.0983.

In the case of `NC(CC(=O)O)c1ccc(Br)cc1` (centres undefined), the z-score is -0.0217. Turning to `O=C(NC(=S)NCCSc1ccccc1)c1cccnc1`, the z-score was -0.113.

`O=C(CSc1cccc2cccnc12)NCc1ccco1`: the z-score is -0.028. The value for `Cc1ccccc1-n1c(SCC(=O)NCc2cccs2)nc2ccccc2c1=O` was -0.762; that for `N#CCSc1nc2sc3c(c2c(=O)n1C1CCCCC1)CCCC3` was -0.811.

Consider `O=C(c1ccc(S(=O)(=O)Cc2cc(F)ccc2F)c([N+](=O)[O-])c1)N1CCCCC1`, for which the z-score was -0.346.

In the case of `CC(C)N(Cc1cc2ccccc2[nH]c1=O)C(=O)C(C)(C)C`, the z-score was -0.124. Under `O=C(Nc1ccc(N2CCCCC2)c(Cl)c1)c1ccc2c(c1)OCCO2` stands -0.282. Consider `CC(C)Cn1c(CN2CCCCC2C)nc2c1c(=O)n(C)c(=O)n2C` (centres undefined), for which the z-score was -0.341. For the molecule `Cc1ccc(N(CN2CCCC2=O)C(=O)c2ccc(C)c(C)c2)cc1`, the z-score was -0.101.

On to `CCCCCCCCOc1ccc(C2OC34CCCCC3C(C#N)(C#N)C2(C#N)C(=N)O4)cc1` (centres undefined), for which the z-score was -0.275.

For the molecule `Cc1nn(C)cc1/C=C1\CCC/C(=C\c2cn(C)nc2C)C1=O`, the z-score was -0.272. `O=C(Nc1ccc(S(=O)(=O)NCc2ccccc2)cc1)Nc1ccc2c(c1)OCO2`: the z-score is -0.608. With `CNS(=O)(=O)c1cccc(C(=O)OCC(=O)N2c3ccccc3CC2C)c1` (centres undefined), the z-score was -0.232. `CC1=NN(C(=O)Cc2ccccc2)C(O)(c2cccnc2)C1` (centres undefined): the z-score is -0.429.

For the molecule `C=CCn1c2ccccc2c2nnc(SCc3ccc4nonc4c3)nc21`, the z-score was 0.0633. `CC1(C)NC(=O)N(CC(O)CN(Cc2ccccc2)Cc2ccccc2)C1=O` (centres undefined) came in with a z-score of 0.0884. As for `Cn1c(CCCNC(=O)c2ccccc2)nc2ccccc21`, the z-score was -0.174.

In the case of `CCOC(=O)c1sc2nc(CN3CCN(c4cccc(C(F)(F)F)c4)CC3)[nH]c(=O)c2c1C`, the z-score came out at 0.255.

As to `CCOC(=O)c1nn(-c2cccc(C)c2)cc1C(=O)c1ccccc1`, the z-score stood at 0.0743. `CN(c1ccccc1)C1CCCCC1NS(=O)(=O)c1ccc(Cl)cc1` (centres undefined): the z-score was determined as 0.158.

Regarding `CCOc1cccc(NC(=O)C2CC(=O)N(C)C2)c1` (centres undefined), the z-score was -0.223. As to `Cc1ccc(NC(=O)CCc2ccc(S(=O)(=O)N3CCOCC3)cc2)c(C)c1`, the z-score is -0.0346. On to `CCOC(=O)c1c(NS(=O)(=O)Cc2ccccc2)sc2c1CCCC2`, for which the z-score is active: 17.1. As to `CCOC(=O)c1ccc(S(=O)(=O)N2CCC(C(=O)O)CC2)cc1`, the z-score is -0.274. `CS(=O)(=O)c1ccccc1-c1nc(-c2cc(C(F)(F)F)cc(C(F)(F)F)c2)no1`: the z-score worked out at 0.64.

On to `COc1cccc(-c2cc(C(=O)Nc3nc4ccccc4s3)c3ccccc3n2)c1`, for which the z-score was -0.35.

Turning to `COc1ccc(OC)c(NC(=O)C(=O)NNC(=O)c2cccs2)c1`, the z-score is 1.69. Under `CCOC(=O)c1c(NC(=O)Cn2nnc3ccccc32)sc2c1CCC(C)C2` (centres undefined) stands -0.821; under `CC1=Nc2ccc(C)c3nc(C)cc(c23)N1c1ccc(C)cc1`, -2.06. The molecule `Cc1cccc2c(C(=O)O)c3c(nc12)CCCCC3` gave a z-score of 0.0547. Consider `c1ccc(-c2cc(-c3ccc(N4CCOCC4)cc3)nc3ccccc23)cc1`, for which the z-score is 0.0553.

In turn, `CCOc1ccc(NC(=O)Nc2cc(C)ccc2F)cc1` showed a z-score of 0.662. For the molecule `CCNC(=O)COC(=O)COc1ccc(Cl)cc1C`, the z-score was -1.03. The value for `CCCCC1S/C(=N/N=C/c2ccco2)NC1=O` (centres undefined) was -0.238; that for `CSc1nc(C)c(CCOC(=O)c2cccc(Cl)c2)c(=O)[nH]1` was 0.163; that for `Cc1ccc(OCCNC(=O)c2cncc(Br)c2)cc1C` was -0.29. Consider `CN(c1cccc(NC(=O)COc2ccccc2)c1)S(C)(=O)=O`, for which the z-score was 0.0649. For `O=C(O)c1cccc(N2C(=O)CSC2c2c(F)cccc2Cl)c1` (centres undefined), the z-score was -0.536.

Turning to `COc1ccc(OCCC(=O)OCC(=O)Nc2cccc(Br)c2)cc1`, the z-score was determined as 0.19. As for `COc1ccc(C(=O)Oc2cc(/C=N/NS(=O)(=O)c3ccccc3)ccc2OC)cc1`, the z-score was -0.732. The value for `Cc1ccc(-c2nc3ccccc3s2)cc1S(=O)(=O)N1CCCC1` was 0.359; that for `Cc1ccn(C(=O)c2cc3cc(Cl)ccc3oc2=O)n1` was 0.103; that for `CCn1c(=O)cc(OCC(=O)NCc2ccco2)c2ccccc21` was 0.0612. For `Cc1c(C(=O)N2CCOCC2)oc2c1C(=O)CC(C)(C)C2`, the z-score is -0.336. On to `N#CC1(NC(=O)COc2ccc3oc4ccccc4c3c2)CCCCC1`, for which the z-score is -0.147. The value for `Cc1cc(C)cc(N(C(=O)c2csnn2)C(C(=O)NC(C)(C)C)c2cccs2)c1` (centres undefined) was -0.207. Regarding `Cc1ccccc1Nc1nc(N)nc(COC(=O)c2ccccc2)n1`, the z-score is -0.226. Turning to `CCC(CC)C(=O)N1CCN(Cc2ccc3c(c2)OCO3)CC1`, the z-score was -0.17.

Consider `Cc1nn(-c2cccc(Cl)c2)c2c1C(c1ccncc1)C(C#N)=C(N)O2` (centres undefined), for which the z-score is -0.121.

Regarding `Cc1ccccc1-c1nnn(CC(=O)N2CCN(S(=O)(=O)c3ccc(Cl)cc3)CC2)n1`, the z-score was -0.031. With `COc1ccccc1CNC(=O)c1ccc2nc3[nH]c4ccccc4c3nc2c1`, the z-score was found to be 0.337. The value for `COc1c(C)cccc1C(=O)Nc1ccc(CN2CCCCC2)cc1` was 0.088; that for `CC(=O)NCCC(=O)Nc1cccc(S(=O)(=O)N(C)c2ccccc2)c1` was 0.337; that for `CSCCC(NC(=O)c1ccco1)C(=O)OCC(=O)Nc1ncc(Cl)c(C)c1Cl` (centres undefined) was -0.754. In the case of `Cc1nc(N2CCN(Cc3ccccc3)CC2)c(C#N)c2c1COC(C)(C)C2`, the z-score is -0.749. For `Cc1nn(-c2cc(N3CCNCC3)ccc2[N+](=O)[O-])c(=O)c2ccccc12`, the z-score worked out at 1.86.

In the case of `Cn1cc([N+](=O)[O-])c(C(=O)Nc2cc(Oc3cccnc3)cc([N+](=O)[O-])c2)n1`, the z-score is -0.49. Regarding `COc1cc(NC(=S)NC2CC2)c(OC)cc1Cl`, the z-score is -0.0971. Under `CCOC(=O)c1ccc(NC(=O)c2nccnc2C(=O)O)cc1` stands -0.0513; under `CCC(=O)NC(=S)Nc1cccc(NC(=O)c2ccccc2Cl)c1`, -0.263.

As for `O=C(CSc1nc2ccccc2n1S(=O)(=O)c1cccc([N+](=O)[O-])c1)NCc1cccs1`, the z-score was -0.000584. Under `O=C(Nc1ccon1)c1ccc(Br)o1` stands -0.216. Under `CCOC1=NC(C(=O)O)c2ccccc2/C(=C(/C)Cl)N1` (centres undefined) stands 0.561; under `CC(CCc1ccccc1)NC(=O)/C=C/c1ccc(Cl)cc1` (centres undefined), 0.452. As for `O=C(NCCCO)c1ccc2[nH]c3c(c2c1)CCCC3`, the z-score was -0.983. Take `O=c1cc(O)nc2n1CCCS2`: the z-score is 0.177.

Turning to `O=C(CCNC(=O)c1ccco1)NCc1ccccc1`, the z-score was 0.731.

`CCN(CC)N=Nc1ccc(C(=O)O)cc1` showed a z-score of 0.0652. As to `O=C(CNCc1ccccc1)Nc1ccccc1-c1ccccc1`, the z-score is -0.246. `CCOc1ccc(S(=O)(=O)N2CCN(Cc3ccccc3)CC2)c2cccnc12` had a z-score of 0.939.

With `CCOc1cc(C(=O)NCc2ccc(-c3nc4ccccc4o3)cc2)cc(OCC)c1OCC`, the z-score was -0.159.

On to `Cc1c(C(=O)N2CCCC2)sc(NC(=O)c2ccco2)c1C#N`, for which the z-score is -0.347. In turn, `O=C(CSc1nnc(-c2ccc(Cl)s2)o1)N1CCOCC1` came in with a z-score of 0.367. The molecule `COC(=O)c1cc(Br)c(=O)n(Cc2ccc(OC)c(OC)c2)c1` had a z-score of 0.364.

Take `Cc1ccc(OCC(=O)N2CC3(C)CC2CC(C)(C)C3)cc1` (centres undefined): the z-score is -0.513. As to `COc1ccc(O)c(-c2c(-c3ccc(Cl)cc3)n[nH]c2C)c1`, the z-score is -1.4.

As to `COc1ccc(/C=C2\SC(=O)N(CCNC(=O)Cc3coc4cc(OC)ccc34)C2=O)cc1`, the z-score is -0.116. The molecule `COc1ccc(N2C(=O)c3cccc4cccc(c34)C2=O)nn1` came in with a z-score of 0.132.

(Values after PubChem BioAssay AID488969 (Vanderbilt High Throughput Screening Facility, 2010).)
